Laboratory results as given in the supplement of paper PMC4466236.
In all, about 33,000 sequences were measured (“E-score (dimensionless, -0.5 to 0.5)”: median about -0.058, highest 2% from about 0.35 on). Some of the results follow.

These sequences were tested on MvaT (assay: PBM 8-mer E-score (mean of HK and ME arrays) (E-score (dimensionless, -0.5 to 0.5)); higher = stronger relative binding preference; most listed sequences are background and not binding sites).
Description: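 Protein binding microarray: GST-tagged full-length MvaT (P. aeruginosa PAO1) bound to two universal double-stranded 60-mer arrays (ME and HK), each with a constant 25-mer primer and a variable 35-mer region covering all 8-mers. The 8-mer E-score (rank-based, range -0.5 to 0.5, >0.45 = specific binding) is the mean of the two arrays.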

Row | Sequence | PBM 8-mer E-score
1 | GAGCTCAC | -0.217
2 | AGACGGGC | -0.0986
3 | AAGTCTCT | 0.0309
4 | ACGGATTC | -0.0331
5 | TATGCGGA | -0.058
6 | CAGGGACA | -0.188
7 | GTATTTCA | 0.223
8 | AGCTCGGA | -0.141
9 | CGCACGCA | 0.00173
10 | TCACTCGA | -0.168
11 | CGAATAAA | 0.254
12 | CGAGGCAA | -0.0751
13 | AGCCTTGA | -0.171
14 | AGGCACAG | -0.27
15 | ATCGGTAA | -3.6e-06
16 | CAGACACA | -0.0655
17 | AGTTGCTA | 0.0718
18 | CTAGGGTC | -0.226
19 | CACGGGCG | -0.238
20 | GTCTCCTA | -0.118
21 | CTGAGGCC | -0.298
22 | TGCTAGAA | 0.0627
23 | ACAAAGAA | 0.183
24 | GAATAAGC | 0.194
25 | GATCGGAA | -0.104

Row | Sequence | PBM 8-mer E-score
26 | ATTAACTG | 0.283
27 | GATAATGC | 0.151
28 | CAAACCCC | -0.173
29 | CGTGACGC | -0.189
30 | AATCAGCT | -0.0849
31 | AACAGCGT | -0.0539
32 | CTGCTAAG | -0.265
33 | GAATAGAA | 0.105
34 | AGACCGAA | -0.101
35 | ACGTACGG | -0.0797
36 | ACGCATGG | -0.16
37 | GATATCGC | 0.137
38 | AAGGCAGT | 0.0784
39 | AAGGCATA | -0.0792
40 | GTGGGTCA | -0.165
41 | AAGCCGTA | -0.103
42 | ATACAAAG | 0.27
43 | ACTTACCG | 0.0362
44 | CACCTGTA | -0.0465
45 | GGAGGCAC | -0.281
46 | AACTCGCC | -0.087
47 | ACTAGACC | -0.0407
48 | ATCGGTGC | -0.128
49 | AATCATTC | 0.136
50 | ACACAACG | -0.0104

Row | Sequence | PBM 8-mer E-score
51 | ATCGCTAA | 0.0876
52 | GCACACGA | -0.0821
53 | CGAGGGCA | -0.294
54 | AGTGTAGA | 0.0718
55 | TAGATCTA | 0.135
56 | ATATCAAA | 0.244
57 | AGCCGTTC | -0.187
58 | CGCAAGCG | -0.206
59 | GGTCGGAC | -0.14
60 | TACCCCTA | -0.113
61 | CAACACAC | 0.0459
62 | AAGTCGTC | 0.00428
63 | CTGCATTC | -0.112
64 | AACTGGGA | -0.216
65 | GCTACCCA | -0.19
66 | AAAAAGGG | 0.0202
67 | AGGGAAAA | 0.0358
68 | AGAGGGTC | -0.31
69 | GACAGAGC | -0.264
70 | GGATACGA | 0.0766
71 | ATAAGCCC | -0.0318
72 | ATGATAAA | 0.278
73 | ATATACGG | 0.194
74 | CCCCAAAA | -0.131
75 | CATCTAGG | -0.0824

Row | Sequence | PBM 8-mer E-score
76 | CTTCGTAA | -0.0661
77 | CCTAATAA | 0.266
78 | AAAACCCA | 0.138
79 | GCTCGCAA | -0.107
80 | ACTGGGTG | 0.0181
81 | ACTCTTTC | 0.035
82 | ATCTAGAA | 0.201
83 | CCTTCTGA | -0.254
84 | CCTCAGGA | -0.254
85 | ACTCGATG | -0.13
86 | CAGGCCTG | -0.306
87 | CGCAGGGA | -0.231
88 | AAACAGAG | 0.0196
89 | ATACCTTG | 0.00453
90 | ATAGGAAC | 0.107
91 | CCGGCCCG | -0.341
92 | GGTATACA | 0.201
93 | AGGCATAT | 0.132
94 | GAGCCCTC | -0.328
95 | GTGCTATA | 0.143
96 | CTTCAAGC | -0.193
97 | GGGTTCCA | -0.268
98 | ACTGCAGG | -0.115
99 | CGACCGTA | -0.141
100 | ACGATTGA | 0.0233

Row | Sequence | PBM 8-mer E-score
101 | CCACCCGA | -0.329
102 | CAGAGTTA | 0.167
103 | ATAATTTA | 0.416
104 | ACGTCCAG | -0.18
105 | AGAAGACT | -0.054
106 | AGTGCGAA | 0.0576
107 | CTAGCCAA | -0.0421
108 | AATACTCT | 0.144
109 | ATCCCTCA | 0.0787
110 | CATTTGCG | -0.0713
111 | GCTCATTA | 0.00242
112 | ATTACGGC | 0.0781
113 | GTTGGAAA | 0.0548
114 | TACGTTAA | 0.309
115 | AGAATCTC | -0.0899
116 | CGTACCCA | -0.134
117 | TCATCTCA | -0.197
118 | CCGATGTC | -0.215
119 | CAGCTAAC | -0.0651
120 | ACGCCAGG | -0.306
121 | AACTTACT | 0.335
122 | GGAATGCC | -0.213
123 | ACACTGGG | -0.0854
124 | ATATCTTA | 0.339
125 | AAAGGGAG | -0.148

Row | Sequence | PBM 8-mer E-score
126 | CTATTGTA | 0.34
127 | ACCTAGGA | -0.126
128 | GCCGGCAA | -0.142
129 | GAGTCACC | -0.0527
130 | CGCTTGTA | -0.0789
131 | CATTGAAA | 0.0806
132 | CCCATGGA | -0.251
133 | ACCTGCAA | -0.136
134 | CAATTCTA | 0.109
135 | CGCCAAGA | -0.173
136 | ATACATGA | 0.111
137 | GCCGCTAA | 0.0747
138 | AGCTGTAC | -0.129
139 | ATTCATGG | 0.0165
140 | AAAACCAT | 0.0923
141 | AGATGTGC | -0.131
142 | TTATTGAA | 0.279
143 | CGGTGGCA | -0.169
144 | CGACCTTA | 0.0242
145 | AAGTTCTA | 0.305
146 | AATAGGTA | 0.187
147 | CCGCCTCC | -0.28
148 | GCACCACA | -0.083
149 | TAACGAGA | 0.112
150 | AGCACCAG | -0.134

Row | Sequence | PBM 8-mer E-score
151 | ACTAAGGG | 0.0246
152 | AGAGTACC | -0.127
153 | AAGCCGCC | -0.273
154 | AGCAGTTA | 0.12
155 | AATACCTC | 0.00434
156 | CTTCTCTA | 0.0214
157 | ACGCAAGC | -0.143
158 | TCTTCTAA | 0.163
159 | CATAGTCC | -0.0221
160 | AGAACCAT | 0.018
161 | GATCTGCA | 0.0635
162 | TAATTTAA | 0.457
163 | AACATATT | 0.392
164 | GGTCATTA | 0.0945
165 | ACGCCGCT | -0.168
166 | CACCGTGA | -0.268
167 | ACCCGCAG | -0.239
168 | AAACCTAC | -0.0782
169 | ATGATCAC | -0.0926
170 | AGAAGTGA | 0.00815
171 | ATCTTAGC | 0.0838
172 | ACAAAAAT | 0.199
173 | AACACCAT | -0.000821
174 | GATAGCGC | -0.129
175 | AGATGGCC | -0.241

Row | Sequence | PBM 8-mer E-score
176 | ACTACTCG | -0.0682
177 | CCGAAGGC | -0.263
178 | ATAACGCG | 0.12
179 | AACGCAAA | 0.174
180 | GCATTAAA | 0.256
181 | CGGCGTAC | -0.23
182 | CATGGAAC | -0.0543
183 | CTTCTAGC | -0.0316
184 | GGATGAAA | -0.0113
185 | CCACTGCC | -0.168
186 | CTCAAGAA | 0.000127
187 | GTGTGAAC | 0.0097
188 | AACCCTGT | -0.0337
189 | ACTTGCAA | 0.123
190 | AAGGTAAC | 0.046
191 | TGGGCACA | -0.0266
192 | ATGGGCAA | -0.101
193 | ATTGTTTG | 0.213
194 | TCAGTTCA | -0.00177
195 | TAGATCGA | -0.0137
196 | GGGAGAAC | -0.0868
197 | GATTGCTA | 0.0477
198 | AGCCCTTG | -0.282
199 | GATCGGCA | -0.203
200 | AAAAAAGC | 0.138

Row | Sequence | PBM 8-mer E-score
201 | CACTATCC | 0.0404
202 | CCGATGGC | -0.331
203 | GCTGAATA | 0.0801
204 | AATGGTCA | 0.0647
205 | TCGACAGA | 0.0616
206 | CGCGACCC | -0.194
207 | TGCTAAAA | 0.0594
208 | CAATTCTG | 0.0476
209 | CGGATGTC | -0.17
210 | ACGGAAGT | 0.166
211 | AGAGGGCT | -0.285
212 | AACGTTCT | 0.108
213 | ATGCCATA | -0.00484
214 | CCGTCACC | -0.133
215 | ACATCAGG | 0.00258
216 | ATTTAGGG | 0.034
217 | AGAATAGA | 0.051
218 | ACCAGCAT | -0.00479
219 | AGGATACT | -0.0212
